# Laboratory results as given in publication PMC6199309, “A therapeutic approach to pantothenate kinase associated neurodegeneration” (Nature Communications, 2018).
# What was measured:
# Experiment in all cases: KINOMEscan
# [1] = system: FLT3(ITD,F691L)
# Description: (§1) The KINOMEscan™ screening platform employs a novel and proprietary active site-directed competition binding assay to quantitatively measure interactions […]
# (§2) between test compounds and more than 450 human kinases and disease relevant mutant variants. This robust and reliable assay technology affords investigators […]
# (§3) the ability to extensively annotate compounds with accurate, precise and reproducible data. […]
# (§4) thermodynamic interaction affinities, as opposed to IC50 values, which can depend on the ATP concentration.
# (§5) Compounds that bind the kinase active site and directly (sterically) or indirectly (allosterically) prevent kinase binding to the immobilized ligand, will reduce the […]
# (§6) amount of kinase captured on the solid support (A & B). […]
# (§7) the solid support (C). Screening "hits" are identified by measuring the amount of kinase captured in test versus control samples by using a quantitative, precise and […]
# (§8) ultra-sensitive qPCR method that detects the associated DNA label (D). In a similar manner, dissociation constants (Kds) for test compound-kinase interactions are […]
# (§9) calculated by measuring the amount of kinase captured on the solid support as a function of the test compound concentration.
# (§10) Kinase assays. For most assays, kinase-tagged T7 phage strains were grown in parallel in 24-well blocks in an E. coli host derived from the BL21 strain. E. […]
# (§11) coli were grown to log-phase and infected with T7 phage from a frozen stock (multiplicity of infection = 0.4) and incubated with shaking at 32°C until lysis (90-150 minutes). The lysates were centrifuged (6,000 x g) and filtered (0.2µm) to remove cell debris. The remaining kinases were produced in HEK-293 cells and […]
# (§12) subsequently tagged with DNA for qPCR detection. Streptavidin-coated magnetic beads were treated with biotinylated small molecule ligands for 30 minutes at room […]
# (§13) temperature to generate affinity resins for kinase assays. The liganded beads were blocked with excess biotin and washed with blocking buffer (SeaBlock (Pierce), 1 % BSA, 0.05 % Tween 20, 1 mM DTT) to remove unbound ligand and to reduce non-specific phage binding. Binding reactions were assembled by combining […]
# (§14) prepared as 40x stocks in 100% DMSO and directly diluted into the assay. All reactions were performed in polypropylene 384-well plates in a final volume of 0.02 ml. […]
# (§15) for 30 minutes. The kinase concentration in the eluates was measured by qPCR. […]
# (§16) The compound(s) were screened at the concentration(s) requested, and results for primary screen binding interactions are reported as '% Ctrl', where lower numbers […]
# (§17) indicate stronger hits in the matrix on the following page(s). […]
# (§18) test compound = compound submitted by St Jude Childrens Research Hospital (Sharma) […]
# (§19) interactions with quantitative binding constant determinations. […]
# [2] = system: EGFR(L747-T751del,Sins)
# Description: as §1, §2, §3, §4, §5, §6, §7, §8, §9, §10, §11, §12, §13, §14, §15, §16, §17, §18, §19
# [3] = target: T1, FLT3(D835V) (Homo sapiens, UniProt P36888, D835V); conditions: read-out: %Ctrl @ 10000nM
# T1 construct: purchased DiscoverX KINOMEscan
# T1 sequence (P36888 27-993 D835V): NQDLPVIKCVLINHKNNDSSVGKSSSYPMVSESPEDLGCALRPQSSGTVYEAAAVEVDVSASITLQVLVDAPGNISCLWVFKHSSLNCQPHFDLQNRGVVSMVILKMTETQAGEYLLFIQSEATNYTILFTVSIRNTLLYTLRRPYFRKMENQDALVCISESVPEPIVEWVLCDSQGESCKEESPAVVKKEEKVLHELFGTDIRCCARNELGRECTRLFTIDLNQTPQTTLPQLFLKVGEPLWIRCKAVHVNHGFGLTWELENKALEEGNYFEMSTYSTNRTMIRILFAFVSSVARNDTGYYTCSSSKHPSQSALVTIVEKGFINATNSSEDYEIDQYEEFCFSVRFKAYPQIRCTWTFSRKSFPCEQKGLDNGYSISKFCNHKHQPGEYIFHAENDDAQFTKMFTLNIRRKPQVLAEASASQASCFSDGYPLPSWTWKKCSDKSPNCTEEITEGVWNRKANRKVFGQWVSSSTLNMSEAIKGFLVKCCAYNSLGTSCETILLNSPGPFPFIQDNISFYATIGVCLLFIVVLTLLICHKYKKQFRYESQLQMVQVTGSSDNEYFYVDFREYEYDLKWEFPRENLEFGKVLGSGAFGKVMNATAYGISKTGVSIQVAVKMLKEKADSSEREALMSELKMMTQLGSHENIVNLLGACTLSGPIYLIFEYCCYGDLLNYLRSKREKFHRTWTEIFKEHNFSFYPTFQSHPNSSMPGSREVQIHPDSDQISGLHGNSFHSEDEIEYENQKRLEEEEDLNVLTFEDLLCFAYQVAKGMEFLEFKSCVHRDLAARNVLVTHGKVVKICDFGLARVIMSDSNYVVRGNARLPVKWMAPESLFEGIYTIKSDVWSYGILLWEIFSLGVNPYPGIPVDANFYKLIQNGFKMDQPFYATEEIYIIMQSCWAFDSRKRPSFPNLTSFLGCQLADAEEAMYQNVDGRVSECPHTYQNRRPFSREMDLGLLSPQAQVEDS
# Description: as §1, §2, §3, §4, §5, §6, §7, §8, §9, §10, §11, §12, §13, §14, §15, §16, §17, §18, §19
# [4] = system: FLT3(ITD,D835V)
# Description: as §1, §2, §3, §4, §5, §6, §7, §8, §9, §10, §11, §12, §13, §14, §15, §16, §17, §18, §19
smiles,measurement,setting,value
"CC(C)c1ccc(CC(=O)N2CCN(c3ccc(C#N)nn3)CC2)cc1 [PZ-2891, 6-(4-(2-(4-isopropylphenyl)acetyl)piperazin-1-yl)pyridazine-3-carbonitrile]",%Ctrl @ 10000nM,[1],76%
same,%Ctrl @ 10000nM,[2],100%
same,remaining binding at 10 µM,[3],78%
same,%Ctrl @ 10000nM,[4],85%
